Source: the RNAGym collection of RNA variant scans (doi:10.1073/pnas.2313332121)
Variants at the background level are over-represented here.

B1: TPR 5TU (parent)
chain: GGAUCUUCUCGAUCUAACAAAAAAGACAAAUCUGCCACAAAGCUUGAGAGCAUCUUCGGAUGCAGAGGCGGCAGCCUUCGGUGGCGCGAUAGCGCCAACGUUCUCAACUAUGACACGCAAAACGCGUGCUCCGUUGAAUGGAGUUUAUCAUG

Variants of: B1
Assay: polymerase ribozyme fitness, log enrichment relative to wild type (log ratio); higher = more active; in vitro selection for triplet polymerase activity
Outline: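 PCR was used to build mutant libraries for each subunit of a heterodimeric triplet polymerase ribozyme, which were then transcribed. A single in vitro selection round, in triplicate, used a frozen incubation at −7 °C and recovered extended constructs by gel excision, streptavidin beads and RT-PCR. Fitness is the logarithm of genotype enrichment relative to wild-type enrichment, averaged over replicates with inverse-variance weights. The logarithm is base 2, and after Illumina sequencing only genotypes with ≥10 input reads and ≥1 read per output were kept.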

Variant	polymerase ribozyme fitness (log ratio)
C85G U144A A150U	-3.7
C85U	-0.513
C85U A89U A119C	-0.895
C85U A91U C95G G140U	≤ -4.2
C85U A98G	-0.688
C85U A98U G117A	-0.373
C85U A107U U145A A150U	≤ -4.2
C85U A115U G140A	-3.77
C85U A121C	-0.139
C85U A122C G133A G140C	≤ -4.2
C85U C87U	0.308
C85U C93U A107G G117A G140U	≤ -4.2
C85U C95U G133A	-4
C85U C96U	-0.746
C85U C99G G136U	-2.88
C85U C116A A122G G143U	≤ -4.2
C85U C118G G140C	≤ -4.2
C85U G86C A89U C99A C108U	≤ -4.2
C85U G86C C95A U144A U145C	≤ -4.2
C85U G86C G88A U90G A121U G128A	≤ -4.2
C85U G86U C93U U130A A138U	≤ -4.2
C85U G86U U135G	≤ -4.2
C85U G88C C116G	≤ -4.2
C85U G92U C96U A137U	≤ -4.2

Variant	polymerase ribozyme fitness (log ratio)
C85U G94C	-0.28
C85U G117A	0.212
C85U G117A G141C G152C	≤ -4.2
C85U G128A	-3.29
C85U G141U	1.07
C85U U101G	-1.15
C85U U101G C105A U109G A110G	-4.19
C85U U134C U144A C149A	-4.1
C85U U139C	-3.16
C85U U139G	-0.28
C85U U145G	-2
G86A A89U C123U	-2.1
G86A A98U A138U U145A	≤ -4.2
G86A A113C	-3.53
G86A A122G U148G	≤ -4.2
G86A C103G U134A	≤ -4.2
G86A G92U A107G	≤ -4.2
G86A G100U	≤ -4.2
G86A G112C A122G	≤ -4.2
G86A G143U	-3.07
G86C C96U	-2.67
G86C C99G U109G C129A U148G	≤ -4.2
G86C C114U G140A	≤ -4.2
G86C G88U U104G C116G	≤ -4.2

Variant	polymerase ribozyme fitness (log ratio)
G86C G92A	≤ -4.2
G86C G136A	-1.38
G86C G136C	≤ -4.2
G86C U101G	-2.8
G86C U127G A137G U146G	≤ -4.2
G86C U135C A142C U145C	≤ -4.2
G86U A89C A119C	-3.83
G86U A98U U111G C114U	-3.81
G86U A119G	-1.54
G86U A137G	-3.03
G86U C96A	-2.89
G86U C118U	-1.69
G86U C125U	-2.02
G86U G88A A150C	≤ -4.2
G86U G88U G94U A150U	≤ -4.2
G86U G100U	≤ -4.2
G86U U90A U101A A106G A113U A120U G126A	≤ -4.2
G86U U90G A98U G143C	≤ -4.2
G86U U90G G92A A107G U135G	≤ -4.2
G86U U90G G100A C116A A122C	≤ -4.2
G86U U101C C118U	-1.56
G86U U102G A150U	-3.59
G86U U104C C131A U135C	≤ -4.2
G86U U104G C116A A142G A147C	≤ -4.2

Variant	polymerase ribozyme fitness (log ratio)
G86U U148A	-3.6
C87A A89C	≤ -4.2
C87A A91G	≤ -4.2
C87A A98G U130G	≤ -4.2
C87A A106C C125G	≤ -4.2
C87A A106U	-4.18
C87A A107U	≤ -4.2
C87A A110C C116A A142U	≤ -4.2
C87A A115C G124U	≤ -4.2
C87A A119C U151A G152C	≤ -4.2
C87A A147G	≤ -4.2
C87A C93G C114U G141C	≤ -4.2
C87A C93U G152A	≤ -4.2
C87A C96G C105U C116A	≤ -4.2
C87A C96U C99G U111C C125A	≤ -4.2
C87A C116G A121U	≤ -4.2
C87A C123A A150U	-3.19
C87A G88A A137U	≤ -4.2
C87A G117U	≤ -4.2
C87A G124U G141A U148G	≤ -4.2
C87A G126U G141C U144C	≤ -4.2
C87A G128C U144A	≤ -4.2
C87A G133C U145C U146C	≤ -4.2
C87A U90C G117C	-3.77

Variant	polymerase ribozyme fitness (log ratio)
C87A U104G C125G	≤ -4.2
C87A U111C A120U G140U	≤ -4.2
C87A U134A	≤ -4.2
C87A U151G	≤ -4.2
C87G A89U U127A A142C	≤ -4.2
C87G G128A U139A G143A U144C	≤ -4.2
C87G G140C	≤ -4.2
C87G G141C A150U	≤ -4.2
C87G G152U	-3.57
C87G U90C C95U U127G C132U	≤ -4.2
C87G U104C	≤ -4.2
C87G U127C	≤ -4.2
C87G U139A	≤ -4.2
C87U A91U A98G A138G G152A	≤ -4.2
C87U A97G G100C C125G	≤ -4.2
C87U A107G A119U	≤ -4.2
C87U A107U	-3.34
C87U A115U	-1.73
C87U A115U G140U	-4.19
C87U A137G	-1.81
C87U A150G G152U	≤ -4.2
C87U C93G A121U C132A	≤ -4.2
C87U C103A U127A	≤ -4.2
C87U C103G	-2.13

Variant	polymerase ribozyme fitness (log ratio)
C87U C105G A121U A122U	-1.19
C87U C118U G143C	-2.54
C87U G88A U111G	≤ -4.2
C87U G88C C125G G140A G143U	≤ -4.2
C87U G117A	-0.356
C87U G140U	-3.68
C87U U90G U135A	≤ -4.2
C87U U101G A137C	-3.73
C87U U104A A138G G140C	≤ -4.2
C87U U109C	-3.46
C87U U111G	≤ -4.2
C87U U145G	-1.51
C87U U148A	-3.62
G88A C93G C149G	≤ -4.2
G88A C93U	≤ -4.2
G88A C95G U148G A150C	≤ -4.2
G88A C105A A147C U151G	≤ -4.2
G88A C125G	≤ -4.2
G88A G92C	≤ -4.2
G88A G117U	-3.84
G88A G143U	≤ -4.2
G88A U90A C96U A97U	≤ -4.2
G88A U101G A107U	≤ -4.2
G88A U109G C125U	≤ -4.2

Variant	polymerase ribozyme fitness (log ratio)
G88A U127G C129U	≤ -4.2
G88C A89G C96G G140C	≤ -4.2
G88C C93G C114U	≤ -4.2
G88C C93G U102C G124A	≤ -4.2
G88C C114U G141U	≤ -4.2
G88C C118U	≤ -4.2
G88C C129A A137G	≤ -4.2
G88C G92U C114U A137G	≤ -4.2
G88C U101C A113C U139G	≤ -4.2
G88U A106G	-3.91
G88U A106U	≤ -4.2
G88U A142U	≤ -4.2
G88U C96U G124C G136U	≤ -4.2
G88U C99U	-4.12
G88U C108U U139A	≤ -4.2
G88U C149U	≤ -4.2
G88U G117U A142C	≤ -4.2
G88U G141U	-3.23
A89C A150G	-0.921
A89C C93U G136C	≤ -4.2
A89C C96U A97C C99U	-3.09
A89C C99U C114U	-2.63
A89C C123A G128U	-3.31
